Test results from patent publication US20220135678A1, “METHODS AND COMPOSITIONS TO IMPROVE THE SAFETY AND EFFICACY OF CELLULAR THERAPIES” (University of Southern California, priority 2019, published 2022).

B1: AMR-dTAG fusion protein targeting CD33: AMR-dTAG fusion protein targeting CD33, lentiviral expression in hematopoietic stem and progenitor cells (protein)
chain: MALPVTALLLPLALLLHAARPDEIVLTQSPGSLAVSPGERVTMSCKSSQSVFFSSSQKNYLAWYQQIPGQSPRLLIYWASTRESGVPDRFTGSGSGTDFTLTISSVQPEDLAIYYCHQYLSSRTFGQGTKLEIKRGGGGSGGGGSGGGGSQVQLQQPGAEVVKPGASVKMSCKASGYTFTSYYIHWIKQTPGQGLEWVGVIYPGNDDISYNQKFQGKATLTADKSSTTAYMQLSSLTSEDSAVYYCAREVRLRYFDVWGQGTTVTVSSTRIEVMYPPPYLDNEKSNGTIIHVKGKHLCPSPLFPGPSKPFWVLVVVGGVLACYSLLVTVAFIIFWVRSKRSG[about 100 residues cut from this listing]
B2: AMR-ShieldTag fusion protein targeting CD33: AMR-ShieldTag fusion protein targeting CD33, lentiviral expression in hematopoietic stem and progenitor cells (protein)
chain: MALPVTALLLPLALLLHAARPDEIVLTQSPGSLAVSPGERVTMSCKSSQSVFFSSSQKNYLAWYQQIPGQSPRLLIYWASTRESGVPDRFTGSGSGTDFTLTISSVQPEDLAIYYCHQYLSSRTFGQGTKLEIKRGGGGSGGGGSGGGGSQVQLQQPGAEVVKPGASVKMSCKASGYTFTSYYIHWIKQTPGQGLEWVGVIYPGNDDISYNQKFQGKATLTADKSSTTAYMQLSSLTSEDSAVYYCAREVRLRYFDVWGQGTTVTVSSTRIEVMYPPPYLDNEKSNGTIIHVKGKHLCPSPLFPGPSKPFWVLVVVGGVLACYSLLVTVAFIIFWVRSKRSGG[about 100 residues cut from this listing]

System: CD33 on hematopoietic stem cells and progenitor cells
Assay: HSPC expressing AMR-dTAG or AMR-ShieldTag targeting CD33, in vitro
Assay type: cell-based
Conditions: ShieldTag: in the presence of Shield-1

| Molecule | Expression of CD33 in the transduced hematopoietic stem cells and progenitor cells |
| --- | --- |
| B1 | masked |
| B2 | masked |
